From PubChem BioAssay (NCI)
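Abbreviation: GI50, concentration required for 50% inhibition of growth.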 A number of entries come with more than one value. Only these are listed. The source may hold further records. Values that stand side by side are repeats in other runs, samples, wells, individuals or studies. What stands in brackets tells the records apart. Letters hold for one entry only.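 TGI: total growth inhibition.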

Assays:
SR leukemia = assay: inhibition of tumour cell growth, NCI panel, 384-well format
MOLT-4 leukemia = assay: as above

For `COc1ccc(C2=N[C@@H](c3ccc(Cl)cc3)[C@@H](c3ccc(Cl)cc3)N2C(=O)N2CCNC(=O)C2)c(OC(C)C)c1`, the GI50 (SR leukemia) was 3.57 µM [sample A, 1 test] and 153 nM [sample B, 1 test] and 183 nM [sample C, 1 test], the TGI (SR leukemia) was 12.2 µM [sample A, 1 test] and 307 nM [sample B, 1 test] and 344 nM [sample C, 1 test] and the GI50 (MOLT-4 leukemia) was 2.32 µM [sample A, 1 test] and 155 nM [sample B, 1 test] and 178 nM [sample C, 1 test]. The TGI (MOLT-4 leukemia) was 4.76 µM [sample A, 1 test] and 294 nM [sample B, 1 test] and 321 nM [sample C, 1 test].
